About 2,200 (0.71%) of roughly 310,000 compounds showed an effect of 50% or more. Effects have a minus sign here. Some of the results follow.
The compounds below were run against human ether-à-go-go-related gene (hERG) potassium channel (human, UniProt Q12809) (assay: primary screen, population patch clamp on CHO cells stably expressing hERG).
Chain of human ether-à-go-go-related gene (hERG) potassium channel (Q12809 whole entry, looked up): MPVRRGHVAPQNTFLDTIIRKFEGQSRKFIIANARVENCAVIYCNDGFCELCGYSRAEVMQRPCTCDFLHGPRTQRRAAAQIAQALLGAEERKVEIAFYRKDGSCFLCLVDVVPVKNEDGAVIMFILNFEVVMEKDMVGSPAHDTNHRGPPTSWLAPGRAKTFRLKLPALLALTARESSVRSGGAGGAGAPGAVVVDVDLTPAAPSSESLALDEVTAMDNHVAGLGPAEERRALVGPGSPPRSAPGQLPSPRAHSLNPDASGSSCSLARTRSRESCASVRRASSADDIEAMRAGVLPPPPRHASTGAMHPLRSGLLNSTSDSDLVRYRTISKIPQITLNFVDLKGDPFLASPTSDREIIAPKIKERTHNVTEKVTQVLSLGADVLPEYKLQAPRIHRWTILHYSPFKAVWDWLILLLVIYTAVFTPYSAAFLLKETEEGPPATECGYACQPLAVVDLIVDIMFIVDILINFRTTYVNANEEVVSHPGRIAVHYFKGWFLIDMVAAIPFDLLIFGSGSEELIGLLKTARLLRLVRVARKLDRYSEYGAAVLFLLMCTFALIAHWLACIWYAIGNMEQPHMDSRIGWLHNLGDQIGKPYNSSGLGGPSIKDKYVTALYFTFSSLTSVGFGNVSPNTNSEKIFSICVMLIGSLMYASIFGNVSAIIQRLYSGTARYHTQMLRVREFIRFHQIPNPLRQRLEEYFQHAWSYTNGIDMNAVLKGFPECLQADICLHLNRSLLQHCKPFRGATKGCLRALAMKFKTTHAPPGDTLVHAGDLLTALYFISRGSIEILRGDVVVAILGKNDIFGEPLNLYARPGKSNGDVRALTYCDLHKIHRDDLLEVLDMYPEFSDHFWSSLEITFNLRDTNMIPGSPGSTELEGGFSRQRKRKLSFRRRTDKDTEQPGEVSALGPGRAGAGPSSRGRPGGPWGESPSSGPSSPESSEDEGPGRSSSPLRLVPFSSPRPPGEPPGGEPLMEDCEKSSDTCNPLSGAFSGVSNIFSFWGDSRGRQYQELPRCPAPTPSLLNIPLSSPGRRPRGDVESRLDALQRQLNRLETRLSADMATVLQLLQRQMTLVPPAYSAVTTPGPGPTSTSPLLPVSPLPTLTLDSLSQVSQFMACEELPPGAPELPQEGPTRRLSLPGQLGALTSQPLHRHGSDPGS

Structure (SMILES)	hERG current change (%, negative = inhibition) at 1uM [%]
O=C1CCc2cc(S(=O)(=O)NCc3ccccc3Cl)cc3c2N1CC3	8.34
COc1ccccc1Nc1nc(-c2ccccc2)nc2ccccc12	18.4
O=C(c1ccccc1)N1CCOC12CCN(c1ncc(C(F)(F)F)cc1Cl)CC2	15.1
Cc1ccc(OCCCCn2c(CO)nc3ccccc32)cc1	0.302
CN=C1S/C(=C\c2cccc(Cl)c2Cl)C(=O)N1C	2.62
O=S(=O)(Nc1ccccc1Cl)c1ccc(-c2ccccn2)s1	22.5
COc1ccc(S(=O)(=O)N(CCCN2CCOCC2)Cc2ccc(OC)c(OC)c2)cc1	-3.68
O=C1CCCC2=C1C(c1ccc(O)cc1)c1c(ccc3ccccc13)N2 (stereo not shown)	1.35
C[N+]12CCC(CC1)C(C(O)(c1cccc(Cl)c1)c1cccc(Cl)c1)C2.[I-] (stereo not shown)	8.96
COc1cc(/C=N/N=C(\N)c2nonc2N)ccc1O	11.8
C=CCn1c(SCCCCCC)nc(O)cc1=O	-0.713
CC(C)(C)Nc1nc(NCc2cccnc2)nc(N2CCOCC2)n1	7.88
O=[N+]([O-])c1cc(C(F)(F)F)ccc1NCCc1ccccn1	3.84
O=c1c(Cc2ccc(Cl)cc2)c(O)ccn1Cc1cccc(Cl)c1	12
CC1CCc2sc(C(=O)NCC(C)(C)N3CCOCC3)cc2C1 (stereo not shown)	2.41
CCOCCCN1C(=O)C2C(C(=O)Nc3ccc(OCC)cc3)C3C=CC2(O3)C1C(=O)NC1CCCCC1 (stereo not shown)	-2.66
Cc1nnsc1S(=O)c1ccc(F)cc1 (stereo not shown)	10.8
O=C(Cc1csc(NC(=O)c2ccccc2)n1)NO	6.72
COc1ccc(NC(=S)N2CCC(N(C)CC3CCCO3)CC2)cc1 (stereo not shown)	12.2
CCOC(=O)c1ccc(NC(=O)CCS(=O)(=O)c2ccc(Br)s2)cc1	-1.71
CSc1ccccc1NC(=O)CN(C)CC(=O)NCC(=O)Nc1ccc(F)cc1	2.71
CC(C)NC(=S)N1CCN(C(c2ccccc2)c2ccccc2)CC1	1.13

Structure (SMILES)	hERG current change (%, negative = inhibition) at 1uM [%]
Cc1ccc(NC(=S)N=Nc2c(O)n(C)c3ccc(S(=O)(=O)N4CCOCC4)cc23)cc1C	14
O=C(NCCc1ccc(F)cc1)c1cc([N+](=O)[O-])ccc1N1CCOCC1	-98.2
CC1CCCCN1C(=O)c1c([N+](=O)[O-])cnn1C (stereo not shown)	5.13
N#C/C(=C(/O)CN1CCOCC1)c1nc2ccccc2s1	13.8
COc1ccccc1N1C(C)=CC(=C(C#N)c2nc3ccccc3s2)C=C1C	7.61
COc1ccc(N2C(=O)N[C@@H](Cc3ccccc3)C2=O)cc1OC	16.7
Cc1ccc(S(=O)(=O)N2CCN(C(=O)c3ccc(N4CCCCC4)c([N+](=O)[O-])c3)CC2)cc1	7.96
COc1cc(C#N)ccc1OCC(=O)c1ccc2c(c1)OCCO2	-20
O=C(Nc1cccnc1)OC1CCCCC1	2.56
N=c1c(S(=O)(=O)c2ccc(Cl)cc2)cc2c(=O)n3ccccc3nc2n1Cc1ccco1	14
C/C(=N\NC(=O)c1ccc(O)cc1)c1cc2ccccc2o1	-2.13
COc1ccc(CNc2ncnc3ccccc23)cc1	14.8
CCc1ccc(-c2cc(C(=O)N/N=C/c3c[nH]c4ccccc34)[nH]n2)cc1	0.163
O=C(CSc1nnc2nnc3ccccc3n12)N1CCOCC1	14
CCCc1cc(NC(=O)COC(=O)c2nccnc2N)n(-c2ccccc2)n1	0.993
CCn1c2ccccc2c2cc(NC(=O)c3ccc([N+](=O)[O-])cc3)ccc21	3.1
Cc1ccccc1OCCNC(=O)c1ccc2ccccc2n1	-15.8
Cc1cc(C)cc(NC(=O)CN2CCCN(S(=O)(=O)c3ccc(Br)s3)CC2)c1	9.64
CCOc1cccc(CN2CCCC(C(=O)c3cccc(C(F)(F)F)c3)C2)c1O (stereo not shown)	-7.4
CC(C)NC(=O)NC(=O)COC(=O)/C=C/c1ccc2c(c1)OCO2	11.8
O=C(Cn1nc(-c2ccccc2)c2ccccc2c1=O)NCCN1CCOCC1	8.6
Cc1ccc(Nc2nc(NCc3ccco3)c3ccccc3n2)cc1.Cl	15

Structure (SMILES)	hERG current change (%, negative = inhibition) at 1uM [%]
Cc1ccc(C(=O)N2CCN(c3cccc(Cl)c3)CC2)cc1C	3.72
CC(NCCC1(C(C)C)CCOC(C)(C)C1)c1cccs1 (stereo not shown)	12.2
CCN(CC)c1ccc(/C=N/NC(=O)CC(C)C)cc1	-0.348
Nn1c(SCC(=O)NC2CCCCC2)nnc1-c1ccco1	11.1
CC(C)C1(C(C)C)OC(=O)c2ccccc21	-2.57
c1ccc(Nc2ccc(Nc3ccccc3)cc2)cc1	15.5
CC(=O)c1cccc(NC(=O)CN(c2ccccc2F)S(C)(=O)=O)c1	1.45
COc1ccc(CNC(=O)C(c2ccco2)N(C(=O)c2csnn2)c2cccc(C)c2C)cc1 (stereo not shown)	-1.31
Cc1ccc(CNc2ccc3c(c2)ncn3C)cc1	-11.5
O=C(Oc1ccccc1Cl)c1ccccc1P(=O)(O)O	8.26
COc1ccc2oc(C(=O)N3CCN(c4ncccn4)CC3)c(C)c2c1	3.98
CC[n+]1oc(-c2ccccc2)cc1C.F[B-](F)(F)F	14
O=C(c1ccccc1)c1ccc2c(c1)OCCOCCOCCOCCO2	-22.4
CCOc1ccc(-n2c(=S)sc3c(=O)n(-c4ccc(F)cc4)c(SCC(=O)O)nc32)cc1	10
COc1ccc(C(=O)Nc2ncc(C)s2)cc1S(=O)(=O)N1CCCC1	8.61
O=C(CCCn1c(=O)[nH]c2ccccc2c1=O)Nc1ccc(F)cc1	-2
O=C(CSc1nc2ccccc2[nH]1)Nc1nc(-c2ccc(Br)cc2)cs1	19.2
COc1ccccc1N1CCN(S(=O)(=O)CCNC(=O)CCCc2ccccc2)CC1	7.98
COc1ccc(NC(=O)c2cc(-c3ccccn3)nc3ccccc23)cc1S(=O)(=O)N(C)C	5.14
CC(=O)Nc1ccc(NC(=O)Cn2c(=O)n(-c3ccc(C)cc3)c(=O)c3oc4ccccc4c32)cc1	3.22
O=C(Oc1ccc2cc(Br)ccc2c1)c1cccnc1	12.3
COc1ccc(C)cc1NC(=O)CCS(=O)(=O)c1cc2c(cc1Cl)NC(=O)CO2	4.08

Structure (SMILES)	hERG current change (%, negative = inhibition) at 1uM [%]
COc1ccc(N2CCN(C(=O)Cn3cncn3)CC2)cc1	14
O=C(NC1CCCC1)C(=O)N(Cc1cccnc1)C(C(=O)NCC1CCCO1)c1ccco1 (stereo not shown)	12.4
Cn1cccc1C(NC(=O)c1ccccc1)C(Cl)(Cl)Cl (stereo not shown)	13.6
Cc1cccc(CS(=O)(=O)c2ncc(Cl)c(C(=O)NCc3ccc4c(c3)OCO4)n2)c1	4.95
COc1ccc(C(=O)N2CCCC2)cc1S(=O)(=O)N1CCC(C)CC1	11.5
COc1cc(NC(=S)NCCCN2CCOCC2)c(OC)cc1Cl	1.07
CCN1CCc2nc(NC(=O)c3cc(F)c(F)cc3Cl)sc2C1	4.07
O=C(O)COCC(=O)Nc1ccc(-n2nc(C(F)(F)F)cc2-c2cccs2)cc1	18.2
Cc1cc(-c2ccccc2)nc(N(C)NC(=O)c2c(F)cccc2F)c1S(C)(=O)=O	4.4
CCCC(=O)Nc1ccc(N2CCN(C(=O)CCC)CC2)cc1	2.06
Cc1cccc(-c2noc(-c3ccc4c(c3)OCO4)n2)c1	11.7
Cl.O=S1(=O)CCC(NC2CCCC2)C1 (stereo not shown)	4.83
c1ccc(-c2nc3nc4ccccc4nc3n2CC2CCCO2)cc1 (stereo not shown)	10.4
COc1cc(/C=C/c2ccc3cccc([N+](=O)[O-])c3n2)ccc1OCC#N	5.85
CC(=O)C1=C(C)NC(=O)NC1c1ccccc1OCC(=O)NCCc1ccccc1 (stereo not shown)	-0.236
COC(=O)CS(=O)(=O)c1ccsc1C(=O)Nc1ccc(F)c(F)c1	19.1
CCOC(=O)c1c(NC(=O)CN2C(=O)NC3(CCC(C)CC3)C2=O)sc(C(=O)N(C)C)c1C (stereo not shown)	6.86
COc1cccc(OC)c1C(=O)Nc1nc2ccc([N+](=O)[O-])cc2s1	16.1
Cc1ccc(C(O)(COC(=O)C(C)C)COC(=O)C(C)C)c(O)c1	11.5
O=C(COc1ccc2c3c(c(=O)oc2c1)CCC3)c1ccc2c(c1)OCO2	5.27
COc1ccc(OC)c(Cc2nnc(CCC(=O)NCc3ccc(C)s3)o2)c1	9.25
CCOC(=O)C1CCN(C(=O)c2cccnc2Oc2ccccc2)CC1	13.2

From publication PMC4336329 (PLoS ONE, 2015)
